# Paper PMC4336329 (PLoS ONE, 2015)
# The whole screen tested about 310,000 compounds, of which about 2,200 (0.71%) showed an effect of 50% or more. The effect is printed as a negative number. The list shows a part of the results.
# Target: human ether-à-go-go-related gene (hERG) potassium channel (human, UniProt Q12809)
# Assay: primary screen, population patch clamp on CHO cells stably expressing hERG
# human ether-à-go-go-related gene (hERG) potassium channel, sequence (Q12809 whole entry, looked up): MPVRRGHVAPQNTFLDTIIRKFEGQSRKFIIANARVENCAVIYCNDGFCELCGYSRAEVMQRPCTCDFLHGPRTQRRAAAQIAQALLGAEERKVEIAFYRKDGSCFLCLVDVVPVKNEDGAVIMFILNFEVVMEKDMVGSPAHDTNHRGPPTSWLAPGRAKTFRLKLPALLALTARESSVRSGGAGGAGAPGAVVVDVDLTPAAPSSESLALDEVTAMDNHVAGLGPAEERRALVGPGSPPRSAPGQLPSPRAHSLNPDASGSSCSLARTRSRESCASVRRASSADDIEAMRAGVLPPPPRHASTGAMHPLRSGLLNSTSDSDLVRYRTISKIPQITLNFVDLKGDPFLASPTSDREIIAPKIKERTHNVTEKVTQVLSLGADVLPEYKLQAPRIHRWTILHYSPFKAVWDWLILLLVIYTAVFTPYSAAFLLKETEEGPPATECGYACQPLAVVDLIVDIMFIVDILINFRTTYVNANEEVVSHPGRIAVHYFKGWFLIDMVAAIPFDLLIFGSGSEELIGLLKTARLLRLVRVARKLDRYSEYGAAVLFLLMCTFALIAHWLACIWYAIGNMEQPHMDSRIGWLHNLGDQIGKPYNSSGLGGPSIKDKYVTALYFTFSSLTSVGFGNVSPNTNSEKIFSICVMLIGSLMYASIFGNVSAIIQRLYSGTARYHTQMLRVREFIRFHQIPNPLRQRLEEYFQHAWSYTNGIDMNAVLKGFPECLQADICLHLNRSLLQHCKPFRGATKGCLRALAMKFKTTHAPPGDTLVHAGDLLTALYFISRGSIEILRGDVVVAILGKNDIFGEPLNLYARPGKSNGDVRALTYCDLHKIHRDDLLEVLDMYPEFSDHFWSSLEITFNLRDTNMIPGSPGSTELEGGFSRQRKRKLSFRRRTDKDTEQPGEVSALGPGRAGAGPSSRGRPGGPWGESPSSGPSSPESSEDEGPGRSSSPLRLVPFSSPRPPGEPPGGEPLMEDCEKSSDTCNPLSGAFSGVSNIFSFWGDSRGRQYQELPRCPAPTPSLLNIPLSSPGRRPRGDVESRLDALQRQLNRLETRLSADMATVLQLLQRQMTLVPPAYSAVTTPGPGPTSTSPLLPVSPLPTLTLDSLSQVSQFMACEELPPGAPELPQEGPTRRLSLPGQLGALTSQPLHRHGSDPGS
row,Compound,"hERG current change (%, negative = inhibition) at 1uM [%]"
1,O=C(CCc1nc2ccccc2s1)OCC(=O)N1CCN(C(=O)c2ccco2)CC1,-0.575
2,NS(=O)(=O)c1ccc(NC(=S)NC(=O)C2CCCC2)cc1,10.1
3,CC(C)(C)c1ccc(C(=O)c2c[nH]c(C(=O)NCC3CCCO3)c2)cc1 (centres unmarked),8.13
4,COc1ccc(NC(=O)c2ccc(NC(=O)CSc3nccc(=O)[nH]3)cc2)cc1,17.4
5,Cc1ccc(C(=O)OCC(=O)N2CCCCCC2)c(O)c1,8.6
6,CCOc1ccc(NC(=O)c2cc3c(=O)n(C)c4ccccc4c3n2C)cc1,8.36
7,COc1ccc(CNC(=O)[C@@H](NC(=O)C2CCN(C(=O)[C@@H]3CCCN3C(=O)OC(C)(C)C)CC2)C(C)C)cc1,-10.3
8,CCCCNC(=O)c1cn(CC)c2cc(N3CCN(C)CC3)c(F)cc2c1=O,9.71
9,COc1ccccc1CCNC(=O)C(=O)NCC1CCCN1S(=O)(=O)c1ccccc1 (centres unmarked),-5.91
10,Cl.N=C(N=C(N)N)N1CCOCC1,4.09
11,CCOc1ccc(CNC(=O)c2ccco2)cc1,8.69
12,CCCc1nc2sc3c(c2c(=O)n1NC(=O)CCC(=O)O)CCCC3,-0.0417
13,COc1ccc(OC)c(C2NC(=O)NC(C)=C2C(=O)OCc2ccccc2)c1 (centres unmarked),9.66
14,CCS(=O)(=O)Nc1cccc(-c2ccc3nnc(-c4cccnc4)n3n2)c1,17.8
15,CCc1nc2ccccc2n1Cc1ccccc1F,18.2
16,Cc1cc2oc(C(=O)Nc3ccc(S(=O)(=O)Nc4nccs4)cc3)cc(=O)c2cc1Cl,-7.77
17,Cc1ccc(OC(C)C(=O)Nc2ccc(F)cc2)c([N+](=O)[O-])n1 (centres unmarked),5.17
18,O=C(CN1C(=O)CCS(=O)(=O)c2ccccc21)Nc1ccc(Cl)cc1,10.2
19,Cc1sc(N(C(=O)CCc2ccccc2)c2ccc(C(=O)O)cc2)nc1-c1ccccc1,11.3

row,Compound,"hERG current change (%, negative = inhibition) at 1uM [%]"
1,Cc1c(NC(=O)C(C)N2C(=O)C3C4C=CC(C4)C3C2=O)c(=O)n(-c2ccccc2)n1C (centres unmarked),13.9
2,COc1cc(C=O)ccc1OCCOCCOc1ccc(Cl)cc1Cl,10.5
3,COC(=O)[C@@H]1[C@@H](C(=O)OC)C2(c3ccccc3-c3ccccc32)N(c2ccc(Cl)cc2)N1C#N,7.26
4,Cc1ccsc1C(=O)NC(C)c1ccccc1 (centres unmarked),10.8
5,Cc1c(Cl)cccc1NC(=O)C1NC(=O)CC1c1ccccc1 (centres unmarked),18.2
6,COC(=O)C1CCN(C(=O)c2cc3ccccc3oc2=O)CC1,5.04
7,CCOC(=O)Cc1csc(NC(NC(=O)OCC)(C(F)(F)F)C(F)(F)F)n1,8.98
8,COc1ccccc1CC1C(=O)C2CCN1CC2 (centres unmarked),10.2
9,O=C(CSc1nnc(CNC(=O)c2ccco2)o1)Nc1cccc(F)c1,14.5
10,CC(=O)c1cccc(NC(=O)CCn2c(=S)oc3ccccc32)c1,12
11,O=C(CCSCc1cccc(F)c1)NCCc1ccccc1,15
12,Cc1cccc(C(=O)N2CCN(Cc3ccc4c(c3)OCO4)CC2)c1,4.12
13,COc1ccc(NS(=O)(=O)c2cccc(C(=O)NCC(c3ccc(OC)cc3)N3CCOCC3)c2)cc1 (centres unmarked),9.39
14,COC(=O)c1sccc1NC(=O)CSc1ccc(Cl)cc1,8.11
15,CS(=O)(=O)N(CC(=O)NCCSCc1ccco1)c1ccc2c(c1)OCO2,12.1
16,Cc1cc(F)c(F)c(C(=O)N2CCOCC2)c1Cl,24.7
17,COCCCNC(=O)c1ccc(CSCc2ccc(C)cc2)o1,5.23
18,O=S1(=O)[C@H]2C[C@@H]3C=C[C@@]2(CN1Cc1cccc(Cl)c1)O3,4.72
19,COc1ccc(S(=O)(=O)N2CCCCCC2)cc1C(=O)N(C)Cc1ccc(F)cc1,-6.89

row,Compound,"hERG current change (%, negative = inhibition) at 1uM [%]"
1,O=C(CSc1nncc2ccccc12)Nc1cccc(C(=O)O)c1,15.2
2,Cc1cc(C(=O)Nc2c(F)cc(F)cc2Br)n(-c2ccccc2)n1,14.5
3,Cc1ccc(CNC(=O)C(=O)NCC2CCCN2S(=O)(=O)c2cc(C)ccc2C)cc1 (centres unmarked),8.32
4,CCc1ccc(OCC(=O)OCC(=O)c2ccc3c(c2)NC(=O)CO3)cc1,12.4
5,Cc1ccc(CNC(=O)CN(C(=O)C2(C)CC(=O)N=C3C=CC=CN32)c2ccccc2F)cc1 (centres unmarked),12.1
6,COC(=O)CN1C(=O)[C@H]2[C@@H](c3ccc(C)o3)N3C(=O)CN(Cc4ccccn4)C(=O)[C@@]3(C)[C@H]2C1=O,6.42
7,COc1ccc(N2CCN(C(=O)C3CCCN(S(=O)(=O)c4cccc5cccnc45)C3)CC2)cc1 (centres unmarked),5.91
8,CCNC(=S)N1CCN(C(=O)c2ccco2)CC1,-1.1
9,C=CCOc1ccccc1C1C2=C(CC(C)(C)CC2=O)Nc2c1c(=O)n(C)c(=O)n2C (centres unmarked),8.75
10,CC(C)(C)c1n[nH]c2c1CCCC2,8.71
11,Brc1ccc(CN2CCN(c3ccccn3)CC2)s1,5.59
12,N#Cc1ccccc1Cn1cc(/C=N/Nc2ccc([N+](=O)[O-])cn2)c2ccccc21,10.8
13,CN(C)S(=O)(=O)c1cccc2nsnc12,38.3
14,CCOC(=O)c1c(-c2ccc(C)o2)csc1NC(=O)CN1CCN(CC)CC1,1.81
15,CCOc1ccc(-n2c(=S)sc3c(=O)[nH]c(SCC(=O)NC(C)CC)nc32)cc1 (centres unmarked),17.8
16,CC(C)CC(=O)Nc1ccc(-c2cn3cccnc3n2)cc1,30.1
17,Cc1ccc(Oc2coc3cc(O)ccc3c2=O)cc1,10.9
18,COc1ccccc1NC(=S)N1CCN(Cc2ccccc2)CC1,9.8
